Measurements from patent publication US20240400670A1 (JIANGSU HENGRUI PHARMACEUTICALS, published 2024).
Changes are numbered by the printed parent chain. Blank lines part the entries; values can stand above or below the binder they belong to.

Columns and labels:
[1] = biological target: T1, human BAFF (ACROBiosystems, BAF-H52D4) (human, UniProt Q9Y275 part only); experiment: ELISA, sample coated, BAFF titrated, anti-His-HRP
T1 construct: detected with anti-His-HRP
Description: (§1) The specific procedures are as follows:
(§2) The test sample was diluted to 2 μg/mL with a PBS (BasalMedia, B320) buffer at pH 7.4 and added to a 96-well microplate (Coming, 3590) at 100 μL/well. The plate was incubated at 4° C. overnight. After the liquid was discarded, 5 % skim milk (BD, 232100) diluted with PBS was added at 300 μL/well for blocking, and the mixture was incubated at 37° C. for 2 h. After the blocking was completed, the blocking solution was discarded, and the plate was washed 3 times with a PBST buffer (pH 7.4, PBS containing 0.1 % tween-20). […] After the incubation, the plate was washed 3 times with PBST. […] After the plate was washed 3 times with PBST, a TMB chromogenic substrate (KPL, 5120-0077) was added at 100 μL/well, and the mixture was incubated at room temperature for 10⁻¹⁵ min, and then 1 M H₂SO₄ was added at 50 μL/well to terminate the reaction. The absorbance values at 450 nm were taken using a microplate reader. The binding curves of antibodies to antigens were fitted using software, and the EC₅₀ values were calculated.

[2] = biological target: T2, human BAFF (Sino Biological, 10056-HNCH) (human, UniProt Q9Y275 part only); experiment: competition ELISA, blocks BAFF/BCMA; BCMA coated, biotin-BAFF
T2 construct: also called BAFF protein
Description: as §1
(§3) The receptor protein was diluted to 2 μg/mL with a PBS (BasalMedia, B320) buffer at pH 7.4 and added to a 96-well microplate (Corning, 3590) at 100 μL/well. The plate was incubated at 4° C. overnight. After the liquid was discarded, 1 % Casein blocking solution (Thermo, 37528) was added at 200 μL/well for blocking, and the plate was incubated at 37° C. for 2 h. After the blocking was complete, the blocking solution was discarded, and the plate was washed 3 times with a PBST buffer (pH 7.4 PBS containing 0.1 % tween-20) for later use. After the biotin-labeled ligand protein at a fixed concentration was mixed with an antibody or fusion protein diluted in a gradient, the mixture was pre-incubated at 37° C. for 30 min and then added to the blocked microplate. The plate was incubated at 37° C. for 1.5 h. After the incubation was complete, the plate was washed 3 times with PBST. Streptavidin-HRP (Invitrogen, 434323, diluted at 1:4000) was added at 100 μL/well, and the plate was incubated at 37° C. for 1 h. The supernatant was removed. […] The absorbance values at 450 nm were taken using a microplate reader. Curves for the inhibition of binding of the ligands to the receptors were fitted using software, and the IC₅₀ values were calculated.

[3] = biological target: T3, human IL-23 (Sino Biological, CT048-H08H) (human, UniProt Q9NPF7 20-189; P29460 23-328); experiment: cell-based or functional assay
T3 sequence (looked up) 1: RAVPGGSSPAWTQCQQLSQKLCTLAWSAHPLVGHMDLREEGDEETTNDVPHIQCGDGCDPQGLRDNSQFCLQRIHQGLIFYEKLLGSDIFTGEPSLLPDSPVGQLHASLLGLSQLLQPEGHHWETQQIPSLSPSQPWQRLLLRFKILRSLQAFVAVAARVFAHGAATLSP
T3 sequence (looked up) 2: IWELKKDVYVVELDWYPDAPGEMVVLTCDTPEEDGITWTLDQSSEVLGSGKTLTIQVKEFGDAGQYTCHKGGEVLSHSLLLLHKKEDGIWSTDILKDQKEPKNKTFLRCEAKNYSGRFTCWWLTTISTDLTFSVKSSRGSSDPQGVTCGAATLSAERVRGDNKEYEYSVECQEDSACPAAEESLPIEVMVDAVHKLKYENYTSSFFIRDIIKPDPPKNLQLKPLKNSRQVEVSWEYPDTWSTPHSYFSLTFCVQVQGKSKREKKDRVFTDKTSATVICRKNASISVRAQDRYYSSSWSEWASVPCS

[4] = biological target: T3, human IL-23 (Sino Biological, …); experiment: ELISA, sample coated, IL-23 titrated, anti-His-HRP
Description: as §1, §2

[5] = biological target: T4, human APRIL (R&D Systems, 5860-AP-010/CF) (human, UniProt O75888 105-250, limits assumed); experiment: cell-based or functional assay
T4 sequence (looked up): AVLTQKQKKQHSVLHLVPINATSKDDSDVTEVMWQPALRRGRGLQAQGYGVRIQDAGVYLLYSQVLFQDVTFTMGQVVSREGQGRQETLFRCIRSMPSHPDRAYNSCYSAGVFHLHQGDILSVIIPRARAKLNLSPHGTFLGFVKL

[6] = biological target: BAFF (R&D Systems, 7537-BF); experiment: cell-based or functional assay
[7] = biological target: T2, human BAFF (Sino Biological, 10056-HNCH); experiment: competition ELISA, blocks BAFF/BAFF-R; BAFF-R coated, biotin-BAFF
Description: as §1, §3

[8] = biological target: cynomolgus monkey BAFF (Kactus, BAF-CM412) (cynomolgus monkey, UniProt A0A2K5V2X4 134-285); experiment: SPR (Biacore), Protein A capture of sample, 1:1 model
Description: (§4) A certain amount of test sample was subjected to affinity capture by a biosensor chip Protein A (GE, 29127556), and then antigens at a series of concentration gradients were allowed to flow on the surface of the chip. The reaction signals were detected in real time by using Biacore (GE, 8 K) to obtain association and dissociation curves. After the dissociation was completed for each cycle, the biochip was washed and regenerated with a 10 mM glycine-hydrochloric acid solution at pH 1.5 (GE, BR-1003-54). Fitting was performed based on the experimental data using BlAevaluation version 4.1 software with a 1:1 model, and affinity values were obtained.

[9] = biological target: T5, mouse APRIL (R&D Systems, 7907-AP/CF) (mouse, UniProt Q9D777 96-241, limits assumed); experiment: as above
T5 sequence (looked up): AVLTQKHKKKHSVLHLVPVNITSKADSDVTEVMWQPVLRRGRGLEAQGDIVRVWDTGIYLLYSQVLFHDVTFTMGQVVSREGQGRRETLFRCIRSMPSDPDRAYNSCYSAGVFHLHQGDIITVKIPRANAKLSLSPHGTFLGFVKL
Description: as §4

- EC50 [1]: 5.21 nM
- IC50 [2]: 0.993 nM
- Activity in inhibiting proliferation of BaF3-IL-23R cells (IC50, nM) [3]: 0.139 nM
- EC50 [4]: 1.43 nM
- Activity in inhibiting proliferation of B cells (IC50, pM), APRIL [5]: 8.11 pM
- Activity in inhibiting proliferation of B cells (IC50, pM), BAFF [6]: 5.18 pM
- IC50 [7]: 0.839 nM
- Kd [8]: 0.149 nM
- koff [8]: 0.000101 s⁻¹
- kon [8]: 678000 M⁻¹ s⁻¹
- Kd [9]: 0.018 nM
- koff [9]: 0.00036 s⁻¹
- kon [9]: 2e+07 M⁻¹ s⁻¹
B1: Hu29-19T (other)
heavy: STSCREEQGEFYDHLLRDCISCASICGQHPKQCAAFCEGGGGSGGGGSGGGGSQVTLKESGPVLVKPTETLTLTCTVSGFSLTNYAISWVRQPPGKGLEWLGVIWTGGGTNYNSGIKSRLTISKDNSKSQVVLTMTNMDPVDTARYYCVREGDYGSYAGAMDYWGQGTTVTVSSASTKGPSVFPLAPSSKSTSGGTAALGCLVKDYFPEPVTVSWNSGALTSGVHTFPAVLQSSGLYSLSSVVTVPSSSLGTQTYICNVNHKPSNTKVDKKV[here human IgG1 Fc with changes without letters]GGGSSTSCREEQGEFYDHLLRDCISCASICGQHPKQCAAFCESS
light: DIVLTQSPDSLAVSLGERATINCRASESVDYYGISSMHWFQQKPGQPPKLLIYRASNLESGIPARFSGSGSRTDFTLTISSLQAEDVAVYYCQQANKDPYTFGGGTKVEIKRTVAAPSVFIFPPSDEQLKSGTASVVCLLNNFYPREAKVQWKVDNALQSGNSQESVTEQDSKDSTYSLSSTLTLSKADYEKHKVYACEVTHQGLSSPVTKSFNRGEC
notes: anti-IL23 IgG1 with a TACI polypeptide at the N- and the C-terminus of each heavy chain; also called anti-IL23 antibody fusion protein

- EC50 [1]: 5.64 nM
- IC50 [2]: 0.947 nM
- Activity in inhibiting proliferation of BaF3-IL-23R cells (IC50, nM) [3]: 0.232 nM
- EC50 [4]: 1.52 nM
- Activity in inhibiting proliferation of B cells (IC50, pM), APRIL [5]: 4.8 pM
- Activity in inhibiting proliferation of B cells (IC50, pM), BAFF [6]: 4.78 pM
- IC50 [7]: 1.03 nM
- Kd [8]: 0.0755 nM
- koff [8]: 4.4e-05 s⁻¹
- kon [8]: 583000 M⁻¹ s⁻¹
- Kd [9]: 0.02 nM
- koff [9]: 0.000207 s⁻¹
- kon [9]: 1.04e+07 M⁻¹ s⁻¹
B2: Hu29-24T (other)
heavy: STSCREEQGEFYDHLLRDCISCASICGQHPKQCAAFCEGGGGSGGGGSGGGGSQVTLKESGPVLVKPTETLTLTCTVSGFSLTQYAISWVRQPPGKGLEWLGVIWTGGGTNYNSGIKSRLTISKDNSKSQVVLTMTNMDPVDTARYYCVREGDYGSYAGAMDYWGQGTTVTVSSASTKGPSVFPLAPSSKSTSGGTAALGCLVKDYFPEPVTVSWNSGALTSGVHTFPAVLQSSGLYSLSSVVTVPSSSLGTQTYICNVNHKPSNTKVDKKV[here human IgG1 Fc with changes without letters]GGGSSTSCREEQGEFYDHLLRDCISCASICGQHPKQCAAFCESS
light: B1 light with E17Q
notes: as for B1
